Where “and” joins values, the source holds several entries; their conditions need not be identical. Equal values may be shown once. Hit rate of the full screen: of about 48,000 compounds, about 1,200 (2.5%) were called active. About 2% were inconclusive and are not listed.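 The calls were made as follows: active = activation of at least 60% and not above a set upper limit (about 1 call in 100 departs from these limits); inconclusive = activation of 40% to 60%, or above that upper limit; inactive = activation under 40%.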 The list shows a part of the results.
Each compound was assayed against Probable G-protein coupled receptor 32 (Homo sapiens) (UniProt O75388) (assay: qHTS for Agonists of Human Resolvin D1 Receptor DRV1). Settings: CHO-K1 GPR32 beta-arrestin PathHunter luminescence, 90 min; at 76.9 µM; stronger effect = higher value; zero percent set by DMSO-only wells.
Sequence of UniProt O75388 (O75388 whole entry, looked up): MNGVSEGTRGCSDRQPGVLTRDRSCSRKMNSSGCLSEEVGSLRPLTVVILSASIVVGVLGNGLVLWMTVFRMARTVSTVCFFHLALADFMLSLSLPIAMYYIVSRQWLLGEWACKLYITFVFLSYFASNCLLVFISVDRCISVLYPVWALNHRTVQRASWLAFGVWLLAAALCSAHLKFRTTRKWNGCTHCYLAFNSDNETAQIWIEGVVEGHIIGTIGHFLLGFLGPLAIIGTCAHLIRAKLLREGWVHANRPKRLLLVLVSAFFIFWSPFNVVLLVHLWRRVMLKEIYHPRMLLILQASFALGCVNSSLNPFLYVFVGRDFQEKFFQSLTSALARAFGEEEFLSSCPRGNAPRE
In short: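 Using DMSO wells as EC0, agonist-induced signal was taken as chemiluminescence from beta-Gal reconstituted upon beta-arrestin recruitment to GPR32 in CHO-K1 cells after 90 min compound treatment.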
In the case of `Cc1nc(-c2cccc(NC(=O)Nc3ccc([N+](=O)[O-])cc3)c2)no1`, the activation is reported as inactive: -1.05%. `COCC(=O)NCc1nc2cccnc2n1Cc1ccc(F)cc1` was tested, and the activation was inactive: -2.28%. For `Cc1ccc(NC(=O)CSc2ccc(-c3cccs3)nn2)cc1Cl`, the activation was inactive: -4.99%. In the case of `CN(c1ccccc1)S(=O)(=O)c1ccc(NC(=O)c2cc(=O)c3ccccc3o2)cc1`, the activation is reported as inactive: -4.26%. In the case of `Cc1oc(C)c2c(=O)cc(-c3ccc4c(c3)OCO4)cc(OC(=O)c3cccc(Br)c3)c12`, the activation is reported as inactive: -2.65%. For `O=C(CCn1cnnn1)Nc1ccc(F)cc1`, the activation was inactive: -9.77%. In the case of `COc1ccc(Nc2cc(C(=O)NCCCN3CCN(c4ccc(OC)cc4)CC3)c3ccccc3n2)cc1`, the activation is reported as inactive: -36.7%. `COc1ccc(-n2ncc(C(=O)NCCc3ccsc3)c2C2CCN(C(=O)OC(C)(C)C)CC2)cc1` was tested, and the activation was inactive: -9.87%. For `Cc1ccc(Cn2c(CNS(=O)(=O)c3ccc(F)c(Cl)c3)nc3cccnc32)cc1`, the activation was inactive: -27%. For `Cc1ccccc1CCNC(=O)c1ccc2c(c1)nc1n2CCC(C)C1` (stereo not drawn), the activation was inactive: -10.1%. `COc1ccccc1C1Nc2ccccc2-n2c(-c3ccccc3)c3c(=O)n(C)c(=O)n(C)c3c21` (stereo not drawn) was tested, and the activation was inactive: -15%. `Cc1cc(NC(=O)c2cccc(Cl)c2)ccc1-c1cc2ccccc2oc1=O` was tested, and the activation was inactive: -6.72%. With `Cc1noc(-c2ccc(N3CCCCC3)c([N+](=O)[O-])c2)n1` the activation was inactive: 6.98%. For `CCCCc1nn2c(=O)cc(COC(=O)c3ccc(NC(=O)c4ccccc4C)cc3)nc2s1`, the activation was inactive: 12.2%. In the case of `Cc1cc(F)ccc1NS(=O)(=O)c1ccc(-n2cccn2)cc1`, the activation is reported as active: 106%. For `COc1ccc(-c2noc(-c3ccc(N4CCN(c5ccccc5)CC4)c([N+](=O)[O-])c3)n2)cc1OC`, the activation was inactive: -1.12%. In the case of `CCOC(=O)C1(C)C=C(Nc2cccc(C(=O)O)c2)C(=O)N1c1cccc(C(=O)O)c1` (stereo not drawn), the activation is reported as inactive: 9.07%. With `COc1ccc(OC)c(CNC(=O)Cc2ccc(NC(=O)N3CCSc4ncccc43)cc2)c1` the activation was inactive: 1.84%. With `O=C(C1CCN(c2ncnc3c2nc2n3CCCCC2)CC1)N1CCN(c2cccc(Cl)c2)CC1` the activation was inactive: -5.14%. `Cc1ccc(CCNC(=O)c2ccc3c(c2)nc2n3CCC(C)C2)cc1` (stereo not drawn) was tested, and the activation was inactive: -15.2%. With `COc1cc2c(cc1OC)C(COc1ccccc1OC)N(C(=O)COc1ccc(Cl)cc1)CC2` (stereo not drawn) the activation was inactive: 37.8%. With `Cc1cn[nH]c1` the activation was inactive: -7.81% and inactive: 2.07%. For `O=C1CS(=O)(=O)C2(C(=O)N(Cc3ccccc3)c3ccccc32)N1c1ccccc1` (stereo not drawn), the activation was inactive: -9.13%. In the case of `Cc1cc(C)n(CCc2nc3c4ccccc4nc(N4CCN(c5ccccc5)CC4)n3n2)n1`, the activation is reported as inactive: 1.49%. In the case of `COc1cccc(CNC(=O)C2CCCCN2S(=O)(=O)c2ccc(F)cc2)c1` (stereo not drawn), the activation is reported as inactive: -1.24%. With `CCCCNC(=O)C1CCC(Cn2c(=O)c3sccc3n(CC(=O)N3CCCC3)c2=O)CC1` (stereo not drawn) the activation was inactive: -4.49%. With `Clc1cccc(-n2ncc3c(N4CCC(Cc5ccccc5)CC4)ncnc32)c1` the activation was inactive: -17.4%. In the case of `Cc1cc(C)cc(NC(=O)C(=O)NCC(c2cccnc2)N2CCc3ccccc3C2)c1` (stereo not drawn), the activation is reported as inactive: -18.1%. For `CCc1ccccc1NC(=O)c1sc2nc3c(cc2c1N)CN(Cc1ccccc1)CC3`, the activation was inactive: -13.4%. In the case of `O=C(CSc1nncn2c1cc1sccc12)Nc1ccc(Br)cc1F`, the activation is reported as inactive: -13.8%. `CCOC(=O)c1c(C)oc2nc(C)nc(NCc3ccc(OC)cc3OC)c12` was tested, and the activation was inactive: 1.09%. For `COC(=O)c1cccnc1-n1c(=O)c2cccnc2n(CC(=O)Nc2ccccc2F)c1=O`, the activation was inactive: -4.53%. With `O=C(Nc1cc(C(F)(F)F)ccc1Cl)c1nc2ccccc2nc1N1CCCCC1` the activation was inactive: 11.1%. For `O=C(Cn1c(=O)nc(-c2ccccc2)c2ccccc21)NCc1ccc(Cl)cc1`, the activation was inactive: -9.37%. For `CCc1ccc(NC(=O)CCn2nc(C)c(S(=O)(=O)N3CCCCC3)c2C)cc1`, the activation was inactive: 3.92%. With `CCOc1ccc(Cn2c(CNS(=O)(=O)c3ccc(Cl)s3)nc3cccnc32)cc1` the activation was inactive: -29.5%. `COc1cccc(N2CCN(S(=O)(=O)c3ccc(-n4cnnn4)cc3)CC2)c1` was tested, and the activation was inactive: 0.538%. In the case of `COc1ccc2c(C)cc(SCC(=O)Nc3nsc(-c4ccccc4C)n3)nc2c1`, the activation is reported as inactive: -6.21%. For `CCOC(=O)c1ccccc1NC(=O)Cn1c(=O)n(-c2cccc(C)c2)c(=O)c2c1c1cc(C)ccc1n2C`, the activation was inactive: -13.2%. `CCOc1ccccc1NC(=O)C1CCN(S(=O)(=O)c2ccc3c(c2)CC(C)N3C(C)=O)CC1` (stereo not drawn) was tested, and the activation was inactive: 3.97%. With `O=C(NCC(c1ccc2c(c1)OCO2)N1CCOCC1)c1cccc(Cl)c1` (stereo not drawn) the activation was inactive: -23.1%. With `COc1cc(C2C(C(=O)Nc3ccccc3C)=C(C)Nc3ncnn32)ccc1OCC(N)=O` (stereo not drawn) the activation was inactive: -7.26%. In the case of `O=C(NCc1ccc(Cl)cc1)C(=O)NCC(c1cccs1)S(=O)(=O)c1cccs1` (stereo not drawn), the activation is reported as inactive: -0.305%. For `CC1CCN(c2ccc(-c3cccc(NS(=O)(=O)c4ccc(Cl)s4)c3)nn2)CC1`, the activation was inactive: -20.4%. `CCCOc1ccc(-c2nonc2NC(=O)COc2ccc(C)cc2)cc1OCCC` was tested, and the activation was inactive: 3.03%. With `COCCn1c(SCC(=O)c2ccc(OC)cc2)nc2cc(C(=O)NC3CCCC3)ccc2c1=O` the activation was inactive: -42.6%. With `CC(C)(C)NC(=O)Cn1cc(S(=O)(=O)Cc2ccc(F)cc2)c2ccccc21` the activation was inactive: -13.4%. `CCOC(=O)CNC(c1ccccc1)c1cc(Br)ccc1NC(=O)c1ccc(Cl)cc1` (stereo not drawn) was tested, and the activation was inactive: -33%. With `CC(=O)c1c(C)oc2c(Cl)cc(NS(=O)(=O)c3cc(C)c(C)cc3C)cc12` the activation was inactive: 5.81%. In the case of `Cc1ccc(S(=O)(=O)c2nnn(CC(=O)Nc3ccccc3C)c2N)cc1C`, the activation is reported as inactive: 12.9%. With `O=C(CCC1N=C2c3ccccc3N=C(SCc3ccccc3Cl)N2C1=O)NCc1cccs1` (stereo not drawn) the activation was inactive: -22.3%. In the case of `O=C(NCc1ccccc1F)C(=O)NCC(c1cccs1)S(=O)(=O)c1cccs1` (stereo not drawn), the activation is reported as inactive: 39%. For `CCOc1ccc(OCC)c(NC(=O)c2cnc3c(-c4ccccc4)c(C)nn3c2C)c1`, the activation was inactive: -20.8%.
